Experimental data: publication PMC4336329 (PLoS ONE, 2015)
In all, about 310,000 compounds went through this assay and about 2,200 (0.71%) showed an effect of 50% or more. The effect is printed as a negative number. The list shows a part of the results.

Biological target: human ether-à-go-go-related gene (hERG) potassium channel (human, UniProt Q12809)
Test: primary screen, population patch clamp on CHO cells stably expressing hERG

human ether-à-go-go-related gene (hERG) potassium channel, sequence (Q12809 whole entry, looked up): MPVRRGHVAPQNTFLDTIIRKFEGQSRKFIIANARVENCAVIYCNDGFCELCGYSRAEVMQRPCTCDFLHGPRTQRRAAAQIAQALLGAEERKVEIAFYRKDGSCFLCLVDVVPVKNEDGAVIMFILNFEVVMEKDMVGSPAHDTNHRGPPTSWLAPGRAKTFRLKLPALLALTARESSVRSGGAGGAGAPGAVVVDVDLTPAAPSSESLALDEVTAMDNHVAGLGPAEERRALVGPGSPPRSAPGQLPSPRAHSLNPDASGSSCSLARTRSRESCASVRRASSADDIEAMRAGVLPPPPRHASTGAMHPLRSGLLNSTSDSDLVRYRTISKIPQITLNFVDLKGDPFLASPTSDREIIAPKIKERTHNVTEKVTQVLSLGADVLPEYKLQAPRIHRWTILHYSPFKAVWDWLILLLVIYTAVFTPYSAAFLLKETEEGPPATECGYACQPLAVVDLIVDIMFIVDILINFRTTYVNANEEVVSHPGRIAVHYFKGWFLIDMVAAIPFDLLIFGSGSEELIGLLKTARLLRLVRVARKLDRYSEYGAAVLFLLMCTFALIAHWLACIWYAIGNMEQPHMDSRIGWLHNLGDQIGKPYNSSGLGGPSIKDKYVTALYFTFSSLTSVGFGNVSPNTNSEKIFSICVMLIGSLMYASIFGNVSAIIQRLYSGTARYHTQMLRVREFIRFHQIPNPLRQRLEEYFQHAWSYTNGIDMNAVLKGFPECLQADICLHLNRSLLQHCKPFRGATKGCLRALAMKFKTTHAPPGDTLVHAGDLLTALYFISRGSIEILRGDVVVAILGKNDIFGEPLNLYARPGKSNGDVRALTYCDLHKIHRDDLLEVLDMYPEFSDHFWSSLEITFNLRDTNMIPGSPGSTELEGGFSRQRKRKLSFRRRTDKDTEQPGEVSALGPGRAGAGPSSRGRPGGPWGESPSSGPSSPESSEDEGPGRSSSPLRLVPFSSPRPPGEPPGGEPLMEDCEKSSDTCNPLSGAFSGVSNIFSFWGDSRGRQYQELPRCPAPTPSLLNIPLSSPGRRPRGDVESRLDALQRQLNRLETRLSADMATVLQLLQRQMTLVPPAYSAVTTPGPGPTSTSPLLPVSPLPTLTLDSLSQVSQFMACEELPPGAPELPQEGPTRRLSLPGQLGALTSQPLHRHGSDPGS

Row | SMILES | hERG current change (%, negative = inhibition) at 1uM
1 | CCOC(=O)[C@@H](C)N(Cc1ccc(OC)cc1)S(=O)(=O)N(Cc1ccccc1)[C@H](C(=O)OC)C(C)C | 13%
2 | CC1(C)CN(c2ccc(F)cc2)C1=O | 9.44%
3 | Nc1nc(Cl)nc2c1ncn2[C@@H]1O[C@H](CO)[C@@H](O)[C@H]1O | 10.3%
4 | O=c1c2[nH]c3ccc(Br)cc3c2ncn1Cc1ccncc1 | 7.34%
5 | CCOc1ccccc1NC(=O)COC(=O)CSc1ccc(Cl)cc1 | 10.8%
6 | COc1ccc(Nc2nc3c([nH]2)c(=O)[nH]c(=O)n3C)cc1 | 4.85%
7 | COc1ccc(-c2cc3nc(C)c(CCC(=O)NCc4ccco4)c(C)n3n2)c(OC)c1 | -3.95%
8 | Cc1cc(N2C(=O)C3CC=CCC3C2=O)cc(C)c1Br (stereo not shown) | 17.3%
9 | O=C(NCC(c1ccco1)N1CCc2ccccc21)c1ccc([N+](=O)[O-])cc1 (stereo not shown) | -1.88%
10 | N/C(=N\OC(=O)Cc1ccc(-c2ccccc2)cc1)c1ccncc1 | 20.2%
11 | O=C1CCc2cc(S(=O)(=O)N3CCN(c4cccc(C(F)(F)F)c4)CC3)ccc2N1 | -3.31%
12 | CCc1c(C)c2c(C)[nH]nc2oc1=O | 10.5%
13 | O=C(CCNC(=O)c1ccc(Cl)cc1)Nc1ccc(S(=O)(=O)N2CCOCC2)cc1 | 3.3%
14 | CC1=C(C)CC(C(=O)NCCc2ccccc2)C(C(=O)O)C1 (stereo not shown) | -2.23%
15 | CCN(CC)C(=O)CN(c1ccc2c(c1)OCO2)S(C)(=O)=O | -7.7%
16 | COc1ccc(/C=C/C(=O)NC(=S)N2CCN(c3ccccn3)CC2)cc1 | 5.03%
17 | CCOC(=O)C1=C(C)N(C)C(=S)NC1c1cc(OC)ccc1OC (stereo not shown) | 7.94%
18 | O=C(Nc1c2c(nn1-c1ccc(F)cc1)CS(=O)(=O)C2)C12CC3CC(CC(C3)C1)C2 | 9.85%
19 | O=C(NCc1ccccc1Cl)C1CCN(S(=O)(=O)c2cccc3nonc23)CC1 | 19.8%
20 | COc1ccc(NC(=O)CC2C(=O)N(c3ccc(OC)cc3)C(=O)N2CCN2CCN(C)CC2)cc1 (stereo not shown) | 7.42%
21 | CCN(CCCNC(=O)CCCCn1c(=O)[nH]c2ccccc2c1=O)c1ccccc1 | -1.3%
22 | CC(C)CCNC(=O)Cn1c(=O)oc2cc(S(=O)(=O)N3CC(C)CC(C)C3)ccc21 (stereo not shown) | 21.6%

Row | SMILES | hERG current change (%, negative = inhibition) at 1uM
23 | COc1cnc(SCC(=O)O)[nH]c1=O | 18%
24 | CC1CCN(c2ccc(/C=N\Nc3nncn3N)cc2[N+](=O)[O-])CC1 | 12.2%
25 | COc1ccc(/C=C/C(=O)N2CCC(C(N)=O)CC2)cc1S(=O)(=O)N1CCOCC1 | 12.5%
26 | CCn1c(=O)c(-c2cc(=O)[nH][nH]2)c(O)c2ccccc21 | -11%
27 | CCOC(=O)N1CCN(C(=S)Nc2ccccc2C)CC1 | 9.32%
28 | CCOC(=O)C1CCCN(C(=O)c2ccc3[nH]c4c(c3c2)CC(C)CC4)C1 (stereo not shown) | 10.3%
29 | CCN(CC)c1ccc(S(=O)(=O)N2CCOCC2)cc1NC(=O)COC(=O)c1cccnc1SC | 1.22%
30 | Nc1ccc(C(=O)N2CCN(S(=O)(=O)c3ccc(Br)cc3)CC2)cc1[N+](=O)[O-] | 10.1%
31 | O=[N+]([O-])c1ccc(Nc2nccc(Cl)n2)cc1 | 10.2%
32 | CCCCS(=O)(=O)N1CCCC(C(=O)Oc2ccc(Cl)cc2)C1 (stereo not shown) | 15.4%
33 | O=C(Nc1ccc(Cl)cc1)c1cc2nc(-c3ccco3)cc(C(F)(F)F)n2n1 | 3.21%
34 | Cn1c([O-])c(Cc2cccc(Cl)c2Cl)c(=O)n(C)c1=O.[NH4+] | 17.5%
35 | COc1ccc(NC(=S)Nc2ccc3nc(C)c(C)nc3c2)cc1 | 11.1%
36 | CCC(C)NCCCCOc1ccc(Cl)cc1C.O=C(O)C(=O)O (stereo not shown) | 0.708%
37 | CCN(CC)S(=O)(=O)c1ccc(N(C)C)c(NC(=O)CSCc2c(C)noc2C)c1 | -14.8%
38 | O=CN1CCN(C(=O)c2ccc([N+](=O)[O-])cc2)CC1 | -3.87%
39 | CCOC(=O)C1=CC[C@@H](c2ccccc2Cl)N(S(=O)(=O)c2ccc(C)cc2)[C@H]1C(=O)OCC | -3.03%
40 | CSCCC(NC(=O)c1ccccc1)C(=O)Nc1ccncc1 (stereo not shown) | 4.03%
41 | CC(C1CC1)N(C(=O)NC1CCS(=O)(=O)C1)c1ccccc1 (stereo not shown) | 6.55%
42 | NS(=O)(=O)c1ccc2nc(NC(=O)C3=COCCO3)sc2c1 | 12.3%
43 | CN(CCO)c1ccc(-c2nn(C)c(=O)c3ccccc23)cc1[N+](=O)[O-] | 9.86%
